# Measured values published in ChEMBL document CHEMBL3822426, “A cascade screening approach for the identification of Bcr-Abl myristate pocket binders active against wild type and T315I mutant” (Bioorg Med Chem Lett, 2016).
# B1: Tyrosine-protein kinase ABL1 (Homo sapiens) (protein)
# chain: MLEICLKLVGCKSKKGLSSSSSCYLEEALQRPVASDFEPQGLSEAARWNSKENLLAGPSE[letters of about 60 residues not shown]LEKHSWYHGPVSRNAAEYLLSSGINGSFLVRESESSPGQRSISLRYEGRVYHYRINTASDGKLYVSSESRFNTLAELVHHHSTVADGLITTLHYPAPKRNKPTVYGVSPNYDKWEMERTDITMKHKLGGGQYGEVYEGVWKKYSLTVAVKTLKEDTMEVEEFLKEAAVMKEIKHPNLVQLLGVCTREPPFYIITEFMTYGNLLDYLRECNRQEVNAVVLLYMATQISSAMEYLEKKNFIHRDLAARNCLVGENHLVKVADFGLSRLMTGDTYTAHAGAKFPIKWTAPESLAYNKFSIKSDVWAFGVLLWEIATYGMSPYPGIDLSQVYELLEKDYRMERPEGCPEKVYELMRACWQWNPSDRPSFAEIHQAFETMFQESSISDEVEKELGKQGVRGAVSTLLQAPELPTKTRTSRRAAEHRDTTDVPEMPHSKGQGESDPLDHEPAVSPLLPRKERGPPEGGLNEDERLLPKDKKTNLFSALIKKKKKTAPTPPKRSSSFREMDGQPERRGAGEEEGRDISNGALAFTPLDTADPAKSPKPSNGAGVPNGALRESGGSGFRSPHLWKKSSTLTSSRLATGEEEGGGSSSKRFLRSCSASCVPHGAKDTEWRSVTLPRDLQSTGRQFDSSTFGGHKSEKPALPRKRAGENRSDQVTRGTVTPPPRLVKKNEEAADEVFKDIMESSPGSSPPNLTPKPLRRQVTVAPASGLPHKEEAGKGSALGTPAAAEPVTPTSKAGSGAPGGTSKGPAEESRVRRHKHSSESPGRDKGKLSRLKPAPPPPPAASAGKAGGKPSQSPSQEAAGEAVLGAKTKATSLVDAVNSDAAKPSQPGEGLKKPVLPATPKPQSAKPSGTPISPAPVPSTLPSASSALAGDQPSSTAFIPLISTRVSLRKTRQPPERIASGAITKGVVLDSTEALCLAISRNSEQMASHSAVLEAGKNLYTFCVSYVDSIQQMRNKFAFREAINKLENNLRELQICPATAGSGPAATQDFSKLLSSVKEISDIVQR
# Columns and labels:
# [1] = substrate: C(=C/n1ncc2c(NC3CCCCC3)ncnc21)\c1ccccc1; conditions: Homo sapiens; 25 uM
# [2] = substrate: C(=C/n1ncc2c(NC3CCCCC3)ncnc21)\c1ccccc1; conditions: Homo sapiens; 50 uM
# [3] = substrate: C(=C/n1ncc2c(NC3CCCCC3)ncnc21)\c1ccccc1; conditions: Homo sapiens; 100 uM
protein,measurement,setting,value
B1,Km,[1],47.5 µM
same,Km,[2],49.8 µM
same,Km,[3],48.3 µM
